Source: publication PMC9911399, “Two distinct binding modes provide the RNA-binding protein RbFox with extraordinary sequence specificity”
Changes are numbered by the printed parent chain; changes in the protein carry UniProt numbers. Some of the results follow.

T1: RBFOX1 RRM RbFoxmut (Fox-RRM*) (Homo sapiens, UniProt Q9NWB1 109-208, R118D;E147R;N151S;E152T)
T1 sequence: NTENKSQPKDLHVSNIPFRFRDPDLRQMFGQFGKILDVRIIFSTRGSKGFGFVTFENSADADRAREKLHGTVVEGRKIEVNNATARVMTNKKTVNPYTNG

B1: CCUGGAC (DNA:RNA)
RNA: GGGAGACCGGAAUUCAGAUUGUCCCCUGGACUUAAAUCCCGUCGUAGCCACCA
DNA 1: CAATCTGAATTCCGGTCTCCC
DNA 2: TGGTGGCTACGACGGGATT
B2: UAGAUAA (DNA:RNA)
RNA: B1 RNA with C25U, C26A, U27G, G28A, G29U, C31A
DNA 1: CAATCTGAATTCCGGTCTCCC
DNA 2: TGGTGGCTACGACGGGATT
B3: UAAUAAA (DNA:RNA)
RNA: B1 RNA with C25U, C26A, U27A, G28U, G29A, C31A
DNA 1: CAATCTGAATTCCGGTCTCCC
DNA 2: TGGTGGCTACGACGGGATT
B4: AGGGUUG (DNA:RNA)
RNA: B1 RNA with C25A, C26G, U27G, G29U, A30U, C31G
DNA 1: CAATCTGAATTCCGGTCTCCC
DNA 2: TGGTGGCTACGACGGGATT
B5: AUGGUGC (DNA:RNA)
RNA: B1 RNA with C25A, C26U, U27G, G29U, A30G
DNA 1: CAATCTGAATTCCGGTCTCCC
DNA 2: TGGTGGCTACGACGGGATT
B6: CACGAUU (DNA:RNA)
RNA: B1 RNA with C26A, U27C, G29A, A30U, C31U
DNA 1: CAATCTGAATTCCGGTCTCCC
DNA 2: TGGTGGCTACGACGGGATT
B7: UGAAGUC (DNA:RNA)
RNA: B1 RNA with C25U, C26G, U27A, G28A, A30U
DNA 1: CAATCTGAATTCCGGTCTCCC
DNA 2: TGGTGGCTACGACGGGATT
B8: UCCACGU (DNA:RNA)
RNA: B1 RNA with C25U, U27C, G28A, G29C, A30G, C31U
DNA 1: CAATCTGAATTCCGGTCTCCC
DNA 2: TGGTGGCTACGACGGGATT
B9: GAUCCAG (DNA:RNA)
RNA: B1 RNA with C25G, C26A, G28C, G29C, C31G
DNA 1: CAATCTGAATTCCGGTCTCCC
DNA 2: TGGTGGCTACGACGGGATT
B10: CUCAUUG (DNA:RNA)
RNA: B1 RNA with C26U, U27C, G28A, G29U, A30U, C31G
DNA 1: CAATCTGAATTCCGGTCTCCC
DNA 2: TGGTGGCTACGACGGGATT
B11: CCGCCUU (DNA:RNA)
RNA: B1 RNA with U27G, G28C, G29C, A30U, C31U
DNA 1: CAATCTGAATTCCGGTCTCCC
DNA 2: TGGTGGCTACGACGGGATT
B12: AGUGGGA (DNA:RNA)
RNA: B1 RNA with C25A, C26G, A30G, C31A
DNA 1: CAATCTGAATTCCGGTCTCCC
DNA 2: TGGTGGCTACGACGGGATT
B13: GCCUGUU (DNA:RNA)
RNA: B1 RNA with C25G, U27C, G28U, A30U, C31U
DNA 1: CAATCTGAATTCCGGTCTCCC
DNA 2: TGGTGGCTACGACGGGATT
B14: GGGGUAG (DNA:RNA)
RNA: B1 RNA with C25G, C26G, U27G, G29U, C31G
DNA 1: CAATCTGAATTCCGGTCTCCC
DNA 2: TGGTGGCTACGACGGGATT
B15: AGGUGCG (DNA:RNA)
RNA: B1 RNA with C25A, C26G, U27G, G28U, A30C, C31G
DNA 1: CAATCTGAATTCCGGTCTCCC
DNA 2: TGGTGGCTACGACGGGATT
B16: GGGACCG (DNA:RNA)
RNA: GGGAGACCGGAAUUCAGAUUGUCCGGGACCGUUAAAUCCCGUCGUAGCCACCA
DNA 1: CAATCTGAATTCCGGTCTCCC
DNA 2: TGGTGGCTACGACGGGATT
B17: AGAGGGU (DNA:RNA)
RNA: B1 RNA with C25A, C26G, U27A, A30G, C31U
DNA 1: CAATCTGAATTCCGGTCTCCC
DNA 2: TGGTGGCTACGACGGGATT
B18: CGUGGUA (DNA:RNA)
RNA: B1 RNA with C26G, A30U, C31A
DNA 1: CAATCTGAATTCCGGTCTCCC
DNA 2: TGGTGGCTACGACGGGATT
B19: GCGGCUG (DNA:RNA)
RNA: B16 RNA with G26C, A28G, C30U
DNA 1: CAATCTGAATTCCGGTCTCCC
DNA 2: TGGTGGCTACGACGGGATT
B20: UUGGGUG (DNA:RNA)
RNA: B1 RNA with C25U, C26U, U27G, A30U, C31G
DNA 1: CAATCTGAATTCCGGTCTCCC
DNA 2: TGGTGGCTACGACGGGATT
B21: AAGUCGG (DNA:RNA)
RNA: B16 RNA with G25A, G26A, A28U, C30G
DNA 1: CAATCTGAATTCCGGTCTCCC
DNA 2: TGGTGGCTACGACGGGATT
B22: CUCUUUC (DNA:RNA)
RNA: B1 RNA with C26U, U27C, G28U, G29U, A30U
DNA 1: CAATCTGAATTCCGGTCTCCC
DNA 2: TGGTGGCTACGACGGGATT
B23: CGUAUGA (DNA:RNA)
RNA: B1 RNA with C26G, G28A, G29U, A30G, C31A
DNA 1: CAATCTGAATTCCGGTCTCCC
DNA 2: TGGTGGCTACGACGGGATT
B24: UACGUAA (DNA:RNA)
RNA: B1 RNA with C25U, C26A, U27C, G29U, C31A
DNA 1: CAATCTGAATTCCGGTCTCCC
DNA 2: TGGTGGCTACGACGGGATT
B25: AAGUGUC (DNA:RNA)
RNA: B1 RNA with C25A, C26A, U27G, G28U, A30U
DNA 1: CAATCTGAATTCCGGTCTCCC
DNA 2: TGGTGGCTACGACGGGATT
B26: UGGAACG (DNA:RNA)
RNA: B16 RNA with G25U, C29A
DNA 1: CAATCTGAATTCCGGTCTCCC
DNA 2: TGGTGGCTACGACGGGATT
B27: UCCACCG (DNA:RNA)
RNA: B16 RNA with G25U, G26C, G27C
DNA 1: CAATCTGAATTCCGGTCTCCC
DNA 2: TGGTGGCTACGACGGGATT
B28: CCCGGCC (DNA:RNA)
RNA: B1 RNA with U27C, A30C
DNA 1: CAATCTGAATTCCGGTCTCCC
DNA 2: TGGTGGCTACGACGGGATT
B29: CUCUGCA (DNA:RNA)
RNA: B1 RNA with C26U, U27C, G28U, A30C, C31A
DNA 1: CAATCTGAATTCCGGTCTCCC
DNA 2: TGGTGGCTACGACGGGATT
B30: GCAUGGA (DNA:RNA)
RNA: B1 RNA with C25G, U27A, G28U, A30G, C31A
DNA 1: CAATCTGAATTCCGGTCTCCC
DNA 2: TGGTGGCTACGACGGGATT
B31: CGCCCGG (DNA:RNA)
RNA: B16 RNA with G25C, G27C, A28C, C30G
DNA 1: CAATCTGAATTCCGGTCTCCC
DNA 2: TGGTGGCTACGACGGGATT

Each binder was assayed against T1, RBFOX1 RRM RbFoxmut (Fox-RRM*) (assay: EMSA; HiTS-Eq, 1 nM pool, 10 min; buffer printed only for the single-RNA assays: 10 mM Tris pH 7.5, 150 mM NaCl, 3.4 mM EDTA, 0.001% NP-40, 30 C). Conditions: tags: His6 N-terminal (pET28a); label: 5' 32P.
In short: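 Purified RbFox RRM, wild type or mutant, was incubated for 10 min in 50 µL with 1 nM of a 5′-radiolabelled RNA pool carrying 7 randomized nucleotides, whose flanks were annealed to DNA oligonucleotides, over a series of increasing protein concentrations. Unbound RNA was resolved on 8% native PAGE, cut out, reverse-transcribed, barcoded by PCR and sequenced on an Illumina HiSeq 2500. Relative association constants were derived from changes in read counts for each RNA species versus the control reaction and normalised to the cognate motif.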
B1 was tested, and the binding signal was 0.103 KA relative to UGCAUGU.
With B2 the binding signal was 0.0537 KA relative to UGCAUGU.
With B3 the binding signal was 0.0817 KA relative to UGCAUGU.
For B4, the binding signal was 0.578 KA relative to UGCAUGU.
For B5, the binding signal was 0.153 KA relative to UGCAUGU.
For B6, the binding signal was 0.0594 KA relative to UGCAUGU.
In the case of B7, the binding signal is reported as 0.0792 KA relative to UGCAUGU.
With B8 the binding signal was 0.0978 KA relative to UGCAUGU.
For B9, the binding signal was 0.0769 KA relative to UGCAUGU.
With B10 the binding signal was 0.13 KA relative to UGCAUGU.
In the case of B11, the binding signal is reported as 0.106 KA relative to UGCAUGU.
For B12, the binding signal was 0.0902 KA relative to UGCAUGU.
In the case of B13, the binding signal is reported as 0.15 KA relative to UGCAUGU.
For B14, the binding signal was 0.174 KA relative to UGCAUGU.
In the case of B15, the binding signal is reported as 0.22 KA relative to UGCAUGU.
In the case of B16, the binding signal is reported as 0.189 KA relative to UGCAUGU.
For B17, the binding signal was 0.096 KA relative to UGCAUGU.
For B18, the binding signal was 0.243 KA relative to UGCAUGU.
With B19 the binding signal was 0.203 KA relative to UGCAUGU.
With B20 the binding signal was 0.373 KA relative to UGCAUGU.
B21 was tested, and the binding signal was 0.103 KA relative to UGCAUGU.
With B22 the binding signal was 0.0662 KA relative to UGCAUGU.
B23 was tested, and the binding signal was 0.258 KA relative to UGCAUGU.
B24 was tested, and the binding signal was 0.0898 KA relative to UGCAUGU.
With B25 the binding signal was 0.176 KA relative to UGCAUGU.
In the case of B26, the binding signal is reported as 0.84 KA relative to UGCAUGU.
In the case of B27, the binding signal is reported as 0.0787 KA relative to UGCAUGU.
With B28 the binding signal was 0.138 KA relative to UGCAUGU.
For B29, the binding signal was 0.173 KA relative to UGCAUGU.
In the case of B30, the binding signal is reported as 0.23 KA relative to UGCAUGU.
B31 was tested, and the binding signal was 0.063 KA relative to UGCAUGU.
